Measurements reported in PMC4336329 (PLoS ONE, 2015).
Among all 310,000 compounds or so, about 2,200 (0.71%) showed an effect of 50% or more. Effects have a minus sign here. This is one part of the list.

biological target: human ether-à-go-go-related gene (hERG) potassium channel (human, UniProt Q12809); experiment: primary screen, population patch clamp on CHO cells stably expressing hERG
Sequence (Q12809 whole entry, looked up): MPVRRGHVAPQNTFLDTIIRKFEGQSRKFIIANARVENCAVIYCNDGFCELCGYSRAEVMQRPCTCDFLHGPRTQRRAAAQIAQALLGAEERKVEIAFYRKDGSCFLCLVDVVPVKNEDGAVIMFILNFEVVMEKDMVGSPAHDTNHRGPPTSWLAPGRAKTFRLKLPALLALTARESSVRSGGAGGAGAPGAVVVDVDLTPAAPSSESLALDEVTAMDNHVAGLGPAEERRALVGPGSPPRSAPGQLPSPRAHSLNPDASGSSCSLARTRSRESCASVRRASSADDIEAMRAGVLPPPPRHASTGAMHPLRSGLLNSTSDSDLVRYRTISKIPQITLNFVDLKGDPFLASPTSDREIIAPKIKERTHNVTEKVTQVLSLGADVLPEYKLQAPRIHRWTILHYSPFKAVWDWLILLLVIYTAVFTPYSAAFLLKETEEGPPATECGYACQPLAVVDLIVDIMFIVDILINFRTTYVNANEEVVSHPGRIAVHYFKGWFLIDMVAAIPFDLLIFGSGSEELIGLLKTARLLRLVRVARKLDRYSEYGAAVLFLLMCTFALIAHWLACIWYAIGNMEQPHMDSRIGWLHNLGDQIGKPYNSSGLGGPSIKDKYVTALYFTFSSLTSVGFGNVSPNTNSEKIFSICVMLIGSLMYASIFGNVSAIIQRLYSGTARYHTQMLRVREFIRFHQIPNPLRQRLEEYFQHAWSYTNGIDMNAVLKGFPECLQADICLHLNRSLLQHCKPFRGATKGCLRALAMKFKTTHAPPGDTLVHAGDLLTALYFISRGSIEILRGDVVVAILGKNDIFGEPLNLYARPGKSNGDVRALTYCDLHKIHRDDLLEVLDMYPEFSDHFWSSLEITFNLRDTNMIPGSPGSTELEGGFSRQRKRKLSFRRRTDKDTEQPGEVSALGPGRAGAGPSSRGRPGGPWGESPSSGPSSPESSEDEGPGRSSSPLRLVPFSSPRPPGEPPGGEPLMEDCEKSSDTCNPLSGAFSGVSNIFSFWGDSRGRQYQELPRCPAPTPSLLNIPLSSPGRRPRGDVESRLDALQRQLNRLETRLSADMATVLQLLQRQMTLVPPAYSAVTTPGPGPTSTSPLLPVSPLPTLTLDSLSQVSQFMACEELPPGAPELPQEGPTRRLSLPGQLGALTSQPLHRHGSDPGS

Structure (SMILES)	hERG current change (%, negative = inhibition) at 1uM
Cc1c2ccccc2nc2c(F)c(NC(C)C)c(F)c(F)c12	1.74%
Cc1cccc(C=Nc2ccc3c4c(cccc24)CC3)c1O	15.9%
CCCc1nc(SCC(=O)NNC(=O)C2CCCCC2)c2ccccc2n1	0.14%
COc1cccc2oc(-c3ccco3)cc(=O)c12	5.52%
S=C(NCCN1CCOCC1)N1CCN(c2cccc(Cl)c2)CC1	0.588%
Cc1ccc(Cl)cc1NC(=O)NCc1cccnc1	16.2%
O=C1CC(C(=O)Nc2ccccc2)N=C(N2CCOCC2)N1 (centres unmarked)	5.54%
CC(=O)c1cc(F)c(N2CCN(CCC#N)CC2)cc1C	9.12%
CC(C)N1C(=O)CCC1C(=O)O (centres unmarked)	16.7%
CCOC(=O)c1nc(SC)n(C)c1C(=O)OCC	9.58%
O=C(c1ccc(F)cc1)N1CCCCC(Sc2nnc3ccccn23)C1=O (centres unmarked)	-34.6%
CN(C)S(=O)(=O)c1ccc(N=Cc2c(C(F)(F)F)[nH]n(C)c2=O)cc1	8.08%
CSCCC(NC(N)=O)C(=O)N(C)CC(=O)Nc1ccc(C)cc1 (centres unmarked)	11%
CCOC(=O)Cc1c(C)nc2c(-c3ccccc3)c(-c3ccccc3)[nH]n2c1=O	2.13%
COCCNC(=O)C(=O)c1cc(C)n(-c2ccc([N+](=O)[O-])cc2)c1C	-4.17%
CCOc1ccc(-c2nc(CSCC(=O)NC3CCCc4ccccc43)c(C)o2)cc1 (centres unmarked)	3.71%
COC(=O)c1nc(N)sc1C(C)C	15.6%
CCOC(=O)c1c(NC(=O)Cn2cnc3sc(C)c(-c4ccccc4)c3c2=O)sc(C)c1C	3.54%
O=C(Nc1ccncc1)c1ccc2c(c1)C(=O)N(CC1CCCO1)C2=O (centres unmarked)	-2.45%
O=C(c1ccccc1)N(Cc1cccnc1)C1(C(=O)Nc2ccccc2)CCCCC1	8.82%

Structure (SMILES)	hERG current change (%, negative = inhibition) at 1uM
CCn1c(-c2ccc(C)cc2)nn(CC(=O)NCCc2ccccc2)c1=S	-2.97%
CCSC1=C(C#N)C(c2cccc(O)c2)CC(=O)N1 (centres unmarked)	3.9%
O=C(Oc1c(Br)cc(C(=S)N2CCOCC2)cc1Br)c1ccc(Cl)cc1	11.6%
CC12COC3(C(=O)N4CCN(c5ccccn5)CC4)CC1CCC32C (centres unmarked)	-3.31%
CCS(=O)(=O)N1CCN(c2ccc([N+](=O)[O-])c(N3CCOCC3)c2)CC1	4.65%
CCN(CC)CCNC(=O)C1CCN(S(=O)(=O)c2c(C)noc2/C=C/c2ccccc2F)CC1	-2.13%
CCC(=O)Nc1sc(C(=O)Nc2ccccc2F)c(C)c1C(=O)OC	7.41%
CCOc1c(OC)cccc1C1CC(=O)Nc2cc3c(cc21)OCCO3 (centres unmarked)	12.2%
CC1(C)CCC[C@@]2(C)CC=C(C(=O)O)[C@@H]3C[C@]312	9.44%
COc1ccc(Cl)cc1NC(=O)CNCc1cccs1.O=C(O)C(=O)O	10.3%
CC(=O)N/C(=C/c1ccc2c(c1)OCO2)C(=O)O	12.1%
Nc1ccc2c(C(F)(F)F)cc(=O)oc2c1	13.3%
CC1CN(c2ccc([N+](=O)[O-])c(NCCOc3ccccc3)c2)CCN1 (centres unmarked)	3.95%
CN(c1ccccc1)C(c1ccc(F)cc1)c1nnnn1C1CCCC1 (centres unmarked)	0.381%
C=CCn1c(NC(=O)c2ccc(C)cc2)nc2ccccc21	7.93%
CCOc1ccccc1NC(=S)NCCCn1ccnc1	23%
C=CCC(CC=C)(C(N)=O)c1ccccc1	-3.6%
COc1ccccc1N1CCN(C(=O)c2cc3c(s2)-c2ccccc2OC3)CC1	17%
O=C(CNC(=O)C(c1ccccc1)c1ccccc1)N/N=C\c1cccc(O)c1	13.1%
O=C(O)/C=C/c1ccc2ccccc2n1	4.62%

Structure (SMILES)	hERG current change (%, negative = inhibition) at 1uM
Cc1ccc(SCCC(=O)NC(C)(C)C)cc1	-0.491%
COc1ccc(-c2noc(CCCC(=O)NCc3ccco3)n2)cc1OC	11%
CCOC(=O)c1ccc(NC(=O)C2(c3ccccc3)CCOCC2)cc1	15%
Cc1nn(-c2nc3ccccc3[nH]2)c(N)c1-c1ccc(Cl)cc1	9.68%
Cn1ncc([N+](=O)[O-])c1C(=O)Nc1cccc(Cl)c1	10.1%
Cn1c(=O)c2c(nc(Br)n2CCSc2ncccn2)n(C)c1=O	10.5%
O=C(Nc1cc(C(F)(F)F)cc(C(F)(F)F)c1)Nc1cnn(-c2ccc([N+](=O)[O-])cc2)c1C(F)(F)F	4.68%
CC1=NN(C(=O)c2ccc(Cn3nc(C)cc3C)o2)C(O)(C(F)(F)F)C1 (centres unmarked)	9.27%
C[C@]12CC[C@H](O)C[C@@H]1CC[C@@H]1[C@@H]2CC[C@]2(C)C(=O)CC[C@@H]12	3.96%
Cc1ccc(S(=O)(=O)NN2C(=O)c3ccccc3NC2c2ccccc2)cc1 (centres unmarked)	-10%
CC(C)NC(=O)c1ccc(CN2CCc3ccccc3C2)cc1	-11.1%
Cc1c(CC(=O)O)c(=O)oc2c(C)c(OCc3nn[nH]n3)ccc12	15.3%
O=C(Cn1cnc2c(nnn2Cc2ccccc2)c1=O)NCC1CCCO1 (centres unmarked)	10.8%
Cc1ccc(C)c(OCC(=O)N2CCN(Cc3ccc4c(c3)OCO4)CC2)c1	-2.43%
Cl.N=C(N)c1ccc(Cl)cc1	16%
O=S(=O)(c1ccccc1)N1CCOCC1	3.93%
Fc1ccccc1C1CC(c2ccco2)=Nc2ccccc2S1 (centres unmarked)	16.2%
Cc1ccc(CN2CCN(Cc3ccccc3)C(CCO)C2)s1 (centres unmarked)	-26.7%
Cc1ccnc(NC(=O)C2CC(=O)N(c3ccc4c(c3)OCCO4)C2)c1 (centres unmarked)	12.7%
